This note sets out measurements from the supplement of paper PMC4604168 (melanoma cell lines).

Assay in all cases: cell count relative to DMSO control; melanoma cells; higher = more viable cells
What all share (conditions): library dose: standard library concentration; 72 h

Experiment [1] has as its system G361.
Experiment [2] concerns IPC-298.
For experiment [3], the system named is IST-MEL1.
Experiment [4] concerns LOXIMVI.
For experiment [5], the system named is MEL-HO.
Experiment [6] has as its system MeWo.
Experiment [7] concerns RPMI7951.
Experiment [8] has as its system RVH-421.
Experiment [9] has as its system LB2518-MEL.
The test system of experiment [10] is MZ2-MEL.

The list shows a part of the results. Many values rest on one well or one pass, so single values are uncertain.
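Also: cells treated in 1,536-well plates, then fixed and DAPI-stained, with nuclei counted from automated high-throughput microscope images.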

In the case of `NC1(c2ccc(-c3nc4ccn5c(=O)[nH]nc5c4cc3-c3ccccc3)cc2)CCC1` + Nc1nc(F)nc2c1ncn2[C@@H]1O[C@H](CO)[C@@H](O)[C@@H]1O [fludarabine] (first compound 2 µM, partner dose 1 µM), the cell count in experiment [1] is 75.4%; in experiment [2], 62.3%; in [3], 68.3%; in experiment [4] it was 67%; in [5], 61.2%; in experiment [6] it was 76.7%. For the same molecule, the cell count in [7] amounted to 60.3%; in [8] it was 95.7%.
With `CS(=O)(=O)c1ccc(C(=O)Nc2ccc(Cl)c(-c3ccccn3)c2)c(Cl)c1` [vismodegib] + COc1ccc(COc2ccc(Cc3cnc(N)nc3N)cc2OC)cc1 [GW2580] (first compound 5 µM, partner dose 5 µM), the cell count in [1] was found to be 93%; in [2], 92.9%; in experiment [3], 101%; in experiment [9], 117%; in [4] it was 85.8%; in [5] it was 90.2%. In addition, the cell count in experiment [10] is 103%; in experiment [6], 79.8%; in experiment [7], 89.2%; in experiment [8], 79.9%.
Take `CS(=O)(=O)c1ccc(C(=O)Nc2ccc(Cl)c(-c3ccccn3)c2)c(Cl)c1` [vismodegib] + OCc1c[nH]c2ccccc12 [Indole-3-carbinol] (first compound 5 µM, partner dose 4 µM): the cell count is 93.3% in [1]; 88.9% in experiment [2]; 100% in experiment [3]; 92.9% in [9]; 101% in experiment [4]; 111% in experiment [5]. The cell count was 92.2% in [10], 92.5% in experiment [6], 107% in [7] and 162% in experiment [8].
For the molecule `CN(c1ncccc1CNc1nc(Nc2ccc3c(c2)CC(=O)N3)ncc1C(F)(F)F)S(C)(=O)=O` + COCC[n+]1c2c(n(Cc3cnccn3)c1C)C(=O)c1ccccc1C2=O [YM155] (first compound 0.4 µM, partner dose 0.002 µM), the cell count in [1] came out at 57%; in experiment [2] it was 44.7%; in [3], 44.3%; in [4], 46%; in experiment [5], 86.7%; in experiment [6], 33.3%. In addition, the cell count turned out to be 27.4% in experiment [7] and 87.6% in [8].
Consider `CS(=O)(=O)c1ccc(C(=O)Nc2ccc(Cl)c(-c3ccccn3)c2)c(Cl)c1` [vismodegib] + COc1ccc(-c2ccc3c(N4CCOCC4)nc(N4C[C@@H](C)O[C@@H](C)C4)nc3n2)cc1CO [KU0063794] (first compound 5 µM, partner dose 0.1 µM), for which the cell count worked out at 93.1% in experiment [1]; 73% in experiment [2]; 85.5% in [3]; 86.4% in experiment [9]; 92.2% in experiment [4]; 83.9% in [5]. Further, the cell count in experiment [10] is 84.9%; in experiment [6] it was 71.7%; in experiment [7], 95.6%; in experiment [8], 115%.
